Consider 167 variants from the RNAGym collection of RNA variant scans (doi:10.7554/elife.90254).

Read counts are not given, so values of variants with three or more changes are uncertain.

To fix the notation:
B1: LINE1-mini (parent)
chain: GGCAGAGCUCAACACAGCGUGGCAAAGUGGCUGUGGCUAGACUGCC

In this data set the parent is B1. The experiment in a line: self-cleavage, relative activity (ratio to wild type); higher = more cleavage; in vitro, sequencing; the parent is a self-cleaving ribozyme.
Turning to U9C A16C C18G, the self-cleavage worked out at 0.02. On to U9A G21C C42A U43C, for which the self-cleavage was found to be 0.02. In the case of U9C A16G U34A, the self-cleavage came out at 0.02.

Consider U9A A14U G44C, for which the self-cleavage is 0.16. U9C A26U U32G: the self-cleavage was 0.07. With U9A C10A C15U U32G A41U, the self-cleavage was 0.05. As to U9C A16C G17A G40A, the self-cleavage turned out to be 0.01. The value for U9C A14G U38A was 0.04; that for U9A C10A G22U was 0.12; that for U9A U43A C46A was 0.28. Under U9A G30U C37A C42A stands 0.01; under U9C A11G G21U U32A C45A, 0.01. Under U9A G17A C18A G21A G22C G27U stands 0.08; under U9A U28A G35U, 0.1; under U9C A12G A14G, 0.02.

Turning to U9A C42G G44C, the self-cleavage worked out at 0.02. Under U9A A12U A26G stands 0.16. Take U9A C31G A39U: the self-cleavage is 0.04.

On to U9C A24U C37G, for which the self-cleavage came to 0.01.

U9A U32C G36C: the self-cleavage is 0.08. In the case of U9A A12U C15U G22A, the self-cleavage was 0.29. Under U9A A16C C23A stands 0.22; under U9A C13A A16U G29A G40U C45U, 0.08. Regarding U9A A12G A25U, the self-cleavage was found to be 0. On to U9A G19A C37U, for which the self-cleavage amounted to 0.15.

U9A A14U C23U: the self-cleavage was found to be 0.05.

As to U9A A14U C23G, the self-cleavage amounted to 0.07. As for U9A C18U U32C G40C, the self-cleavage amounted to 0.03. Under U9A A16G A24U G27A U32C C37G C42A stands 0; under U9A C10U C31U U34C, 0.02. On to U9C A12U C42U U43G, for which the self-cleavage came out at 0.01.

U9A C15G G21A G40U U43G: the self-cleavage was found to be 0.51. Under U9A C15U A39C stands 0.19; under U9C A11G A39U, 0. Regarding U9A G21A G30C, the self-cleavage was determined as 0.11.

In the case of U9C A14U U20A G33A G44A, the self-cleavage came to 0.05. Under U9A C31U A41C C45G C46A stands 0.01; under U9A A12C A26U, 0. Regarding U9A A24G A25C A26U G40A, the self-cleavage was determined as 0. For U9A U34G G36A, the self-cleavage is 0.52. Under U9A A24U G27U stands 0.27. The value for U9A C15A C23U C37A G40U was 0.05. With U9A G17U G27A, the self-cleavage worked out at 0.1. Under U9A C15U A25C stands 0.32; under U9A G19A G22A A24C U28A G35U, 0.17; under U9A G44A C45U, 0.13. Regarding U9C A12U A16U U32C G35A, the self-cleavage was found to be 0.02. For the variant U9A C31G U38C U43A C46A, the self-cleavage came to 0.23. In the case of U9C A11U C15G C23U G33A C45A, the self-cleavage amounted to 0.01.

For U9A G19U A26C G27U G33U U38C U43G G44A, the self-cleavage was 0.01. The value for U9C A25G A39G C45G was 0.01; that for U9C A26G G33C U38G was 0.02; that for U9A G29C C31A was 0.08. Under U9A G17C G19A stands 0.08. Regarding U9A C10A C13A U43A, the self-cleavage is 0.08. Under U9A G35U U43G G44U stands 0.03; under U9C A25U C31U, 0.01; under U9A G17U A25G G30U, 0.02.

As for U9A C10A A14U G19A G21A G35U, the self-cleavage amounted to 0.02. Under U9C A11U G21C G30C C31G stands 0.01; under U9A A16U A39U C42G, 0.26. In the case of U9C A26U C31G, the self-cleavage was 0.

As for U9A G30U U43C C45A, the self-cleavage was 0.11.

In the case of U9A G33C U38C C45A, the self-cleavage worked out at 0.

Consider U9A G19A G30A, for which the self-cleavage is 2.03. Take U9A G21U C46U: the self-cleavage was found to be 0.12. In the case of U9A C10A U28C, the self-cleavage turned out to be 0.03. The value for U9A C15A G35A A41U was 0.13; that for U9A C15U A24G G29U was 0.19. The value for U9A G35C U43G was 0.03; that for U9A C15G G19U A24G U32C G36C was 0.06.

As to U9A U28G C37A C42G, the self-cleavage is 0.07. The value for U9A C23A A25G G27C C46G was 0.05; that for U9A A24C U38C was 0.15; that for U9A C10A G19C was 0.01.

For U9A U28A A39U, the self-cleavage worked out at 0.13.

Consider U9A G19U G40U, for which the self-cleavage amounted to 0.03. On to U9A G21C G22A A25U G27A, for which the self-cleavage amounted to 0.04. The value for U9C A16U G17C G29U was 0.11. Under U9C C10A C15U G30U G36U C45U stands 0.01; under U9A C10A A12G G30U, 0.02; under U9A C10A G35U, 0.01. The value for U9A C10G G29U was 0.03; that for U9A C31A G40U was 0. Regarding U9A C10A C15G, the self-cleavage was 0. The value for U9A G33U C42A was 0.15; that for U9A A14G A39U was 0.09; that for U9C C10A C13U U43C C45U was 0.04. The value for U9A C10G G22U C45U was 0.01; that for U9C A14C G33A was 0.03; that for U9A A26U A41G was 0.09.

On to U9A U20G G22U A25G G33C G40U U43A, for which the self-cleavage worked out at 0.03. U9A G21U U32G G40U: the self-cleavage came to 0.1.

In the case of U9A G36C C42U G44A, the self-cleavage worked out at 0.01. Regarding U9A C13A U34A, the self-cleavage came out at 0.26. As for U9A U20C G21U C31A G40U, the self-cleavage was 0.06. The value for U9A C18U A39G was 0.04; that for U9A G22A C31U C37G was 0.03; that for U9A A14U A16G was 0.05.

With U9A C10U A11U G22C, the self-cleavage worked out at 0.01. On to U9A A25C G27A U34A C42U, for which the self-cleavage is 0.2. The value for U9C A12C C37U was 0.02. The value for U9C A14C G19A G33C U38A U43C was 0.

In the case of U9C A11C G19U U43C, the self-cleavage came out at 0.01. Under U9A C15U G19A U43C stands 0.15; under U9A G30U G44C, 0.03; under U9C A11U G19C A24U A41C, 0.

U9C A12C C13A G19C: the self-cleavage is 0.02. The value for U9C A26C G29A G36A G40U C46U was 0.02; that for U9A C18U G35A was 0.06; that for U9A A16U G21A G22U C37A C45A was 0.04. The value for U9A C18U G36A C37A was 0.27; that for U9A C13A G21U A26U C42G was 0.1. For U9A A16U G17A G19C, the self-cleavage amounted to 0.06. Under U9A C18G G40U stands 0.23; under U9A C13A U38C, 0.09. Under U9A G21A G30A U32A stands 0.07; under U9A G27A A41U, 0.17. On to U9A C10U A12U G19C, for which the self-cleavage is 0.07. Under U9A G36A U38C G44A stands 0.11. The value for U9C A24U G33A was 0.04; that for U9A A16G C42G was 0.03; that for U9C A12U G22A A25G U43G was 0. The value for U9A C23G A26U A41U was 0.28.

For U9A A16G U38C, the self-cleavage was 0.02. As for U9A U20C G21A C23U, the self-cleavage amounted to 0.06.

Consider U9A A41G G44C, for which the self-cleavage stood at 0.02. The value for U9C A12C A25U G27C G33U C45U was 0.01; that for U9A C10U C18A was 0.14. Take U9C A11G C42U: the self-cleavage worked out at 0.02.

Turning to U9C A12C G17A A25G A41U, the self-cleavage worked out at 0.03. With U9C A14G A25C U34G A39U C45A, the self-cleavage amounted to 0. Regarding U9A G21U C45G, the self-cleavage was found to be 0.41. The value for U9C A11C C23U U38A was 0.02; that for U9C C10A A16C was 0; that for U9A G22C A24C U34G was 0.07. Regarding U9A C10U G21A A24U, the self-cleavage is 0.04. Under U9A G33U A41G stands 0.06; under U9A G21C U34G C45U, 0.15. As to U9A A12C C42G C45U C46A, the self-cleavage is 0.

For the variant U9A A16U G27A, the self-cleavage came to 0.1. For U9A A24C C31G G36A A39U, the self-cleavage was 0.02.

For the variant U9A A16G G35U, the self-cleavage was 0.04. Under U9A A16G G35C stands 0.21; under U9A C23G U32A C45G, 0.14; under U9A C23A G35C, 0.06.

On to U9A C15A G30U C37U C42A, for which the self-cleavage was 0.15. Take U9A G21U G33A G40U: the self-cleavage stood at 0.02. Under U9A A12C C46U stands 0.1; under U9A G21U A25C C45A, 0.14; under U9A A25U G29A U32A C46G, 0.05. Take U9C A12C G17C A39U: the self-cleavage was 0. Take U9A A26U G27A U38C G44A: the self-cleavage was found to be 0.03. As for U9A A12C A24C U32C G40U, the self-cleavage worked out at 0.01. The value for U9A A12G A14G was 0.02; that for U9C A11C C13A C31U U32C was 0.13. The value for U9A U20C G21A was 0.05; that for U9A G17C U34G U38G was 0.22. The value for U9A C13A G19U A24C G30C was 0.13; that for U9A A12G C18G was 0.01; that for U9A G27A U43A C46A was 0.1. On to U9C A26U G27C, for which the self-cleavage was 0.05. As for U9C A16C C23G G36A A39U, the self-cleavage is 0.03. As to U9A C31U U32G C42A, the self-cleavage turned out to be 0.08. The value for U9A G29C G44A was 0.13; that for U9A G40C C45G was 0.12. Under U9A G17U U20A G40C G44U stands 0.04.
